# The other results are listed elsewhere or left out.
# B1: DBA (Dolichos biflorus) (protein)
# chain: ANIQSFSFKNFNSPSFILQGDATVSSGKLQLTKVKENGFPLRFPSGRAFYSSPIQIYDKFTGAVASWATSFTVKISAPSKASFADGIAFALVPVGSEPRRNGGYLGVFDSDVYNNSAQTVAVEFDTLSNSGWDPSMKHIGIDVNSIKSIATVSWDLANGENAEILITYNAATSLLVVSLVHPSRRTSYILSERVDITNELPEYVGVGFSATTGLSEGYIETHDVLSWSFASRLPDDSTAEPLDLARYLVRNVL
# Columns and labels:
# Assay in all cases: glycan array binding signal (z-score within array); higher = stronger binding
# Details in all cases: glycan notation: IUPAC condensed, linker removed
# [1] = target: Gal(b1-3)GlcNAc(b1-3)GalNAc
# Summary of the method: (§1)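 The Consortium for Functional Glycomics database supplied 3228 glycan arrays, of which those lacking an available protein sequence were dropped. The binding signal, a within-array Z-score, was averaged across arrays of the same protein sequence and across linkers. Negative scores can be read as non-binding.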
# [2] = target: Gal(b1-3)GlcNAc(b1-6)Gal(b1-4)GlcNAc
# Summary of the method: as §1
# [3] = target: Gal(b1-3)GlcNAc(b1-6)GalNAc
# Summary of the method: as §1
# [4] = target: Gal(b1-3)GlcNAc(b1-6)[Gal(b1-3)]GalNAc
# Summary of the method: as §1
# Gal(b1-3)GlcNAc6S = target: Gal(b1-3)GlcNAc6S
# Summary of the method: as §1
# [5] = target: Gal(b1-3)[Fuc(a1-4)]GlcNAc
# Summary of the method: as §1
# [6] = target: Gal(b1-3)[Fuc(a1-4)]GlcNAc(b1-2)Man
# Summary of the method: as §1
# [7] = target: Gal(b1-3)[Fuc(a1-4)]GlcNAc(b1-2)Man(a1-3)[Gal(b1-3)[Fuc(a1-4)]GlcNAc(b1-2)Man(a1-6)]Man(b1-4)GlcNAc(b1-4)[Fuc(a1-6)]GlcNAc
# Summary of the method: as §1
# [8] = target: Gal(b1-3)[Fuc(a1-4)]GlcNAc(b1-3)Gal(b1-3)[Fuc(a1-4)]GlcNAc
# Summary of the method: as §1
# [9] = target: Gal(b1-3)[Fuc(a1-4)]GlcNAc(b1-3)Gal(b1-4)GlcNAc
# Summary of the method: as §1
# [10] = target: Gal(b1-3)[Fuc(a1-4)]GlcNAc(b1-3)Gal(b1-4)[Fuc(a1-3)]GlcNAc
# Summary of the method: as §1
# [11] = target: Gal(b1-3)[Fuc(a1-4)]GlcNAc(b1-6)GalNAc
# Summary of the method: as §1
# [12] = target: Gal(b1-3)[GlcNAc(b1-6)]GalNAc
# Summary of the method: as §1
# [13] = target: Gal(b1-3)[Neu5Ac(a2-6)]GalNAc
# Summary of the method: as §1
# [14] = target: Gal(b1-3)[Neu5Ac(a2-6)]GlcNAc(b1-4)Gal(b1-4)Glc
# Summary of the method: as §1
# [15] = target: Gal(b1-3)[Neu5Ac(a2-6)]GlcNAc(b1-6)Gal(b1-4)Glc
# Summary of the method: as §1
# [16] = target: Gal(b1-3)[Neu5Ac(b2-6)]GalNAc
# Summary of the method: as §1
# Gal(b1-4)Gal = target: Gal(b1-4)Gal
# Summary of the method: as §1
# [17] = target: Gal(b1-4)GalNAc(a1-3)[Fuc(a1-2)]Gal(b1-4)GlcNAc
# Summary of the method: as §1
# [18] = target: Gal(b1-4)GalNAc(b1-3)[Fuc(a1-2)]Gal(b1-4)GlcNAc
# Summary of the method: as §1
# Gal(b1-4)Glc = target: Gal(b1-4)Glc
# Summary of the method: as §1
# Gal(b1-4)Glc6S = target: Gal(b1-4)Glc6S
# Summary of the method: as §1
# Gal(b1-4)GlcNAc = target: Gal(b1-4)GlcNAc
# Summary of the method: as §1
# [19] = target: Gal(b1-4)GlcNAc(a1-6)Gal(b1-4)GlcNAc
# Summary of the method: as §1
# Gal(b1-4)GlcNAc(b1-2)Man = target: Gal(b1-4)GlcNAc(b1-2)Man
# Summary of the method: as §1
# [20] = target: Gal(b1-4)GlcNAc(b1-2)Man(a1-3)Man(b1-4)GlcNAc(b1-4)GlcNAc
# Summary of the method: as §1
# [21] = target: Gal(b1-4)GlcNAc(b1-2)Man(a1-3)[Gal(b1-4)GlcNAc(b1-2)Man(a1-6)]Man(b1-4)GlcNAc(b1-4)GlcNAc
# Summary of the method: as §1
# [22] = target: Gal(b1-4)GlcNAc(b1-2)Man(a1-3)[Gal(b1-4)GlcNAc(b1-2)Man(a1-6)]Man(b1-4)GlcNAc(b1-4)[Fuc(a1-6)]GlcNAc
# Summary of the method: as §1
# [23] = target: Gal(b1-4)GlcNAc(b1-2)Man(a1-3)[Gal(b1-4)GlcNAc(b1-2)Man(a1-6)][Gal(b1-4)GlcNAc(b1-4)]Man(b1-4)GlcNAc(b1-4)[Fuc(a1-6)]GlcNAc
# Summary of the method: as §1
# [24] = target: Gal(b1-4)GlcNAc(b1-2)Man(a1-3)[Gal(b1-4)GlcNAc(b1-2)Man(a1-6)][GlcNAc(b1-4)]Man(b1-4)GlcNAc(b1-4)[Fuc(a1-6)]GlcNAc
# Summary of the method: as §1
# [25] = target: Gal(b1-4)GlcNAc(b1-2)Man(a1-3)[GlcNAc(b1-2)Man(a1-6)]Man(b1-4)GlcNAc(b1-4)GlcNAc
# Summary of the method: as §1
# [26] = target: Gal(b1-4)GlcNAc(b1-2)Man(a1-3)[GlcNAc(b1-4)][Gal(b1-4)GlcNAc(b1-2)Man(a1-6)]Man(b1-4)GlcNAc(b1-4)GlcNAc
# Summary of the method: as §1
# [27] = target: Gal(b1-4)GlcNAc(b1-2)Man(a1-3)[Man(a1-6)]Man(b1-4)GlcNAc(b1-4)GlcNAc
# Summary of the method: as §1
# [28] = target: Gal(b1-4)GlcNAc(b1-2)Man(a1-6)Man(b1-4)GlcNAc(b1-4)GlcNAc
# Summary of the method: as §1
# [29] = target: Gal(b1-4)GlcNAc(b1-2)Man(a1-6)[GlcNAc(b1-2)Man(a1-3)]Man(b1-4)GlcNAc(b1-4)GlcNAc
# Summary of the method: as §1
# [30] = target: Gal(b1-4)GlcNAc(b1-2)Man(a1-6)[Man(a1-3)]Man(b1-4)GlcNAc(b1-4)GlcNAc
# Summary of the method: as §1
# [31] = target: Gal(b1-4)GlcNAc(b1-2)[Gal(b1-4)GlcNAc(b1-4)]Man(a1-3)[Gal(b1-4)GlcNAc(b1-2)Man(a1-6)]Man(b1-4)GlcNAc(b1-4)GlcNAc
# Summary of the method: as §1
binder,measurement,setting,value
B1,glycan array binding signal (z-score),[1],-0.126
same,glycan array binding signal (z-score),[2],-0.131
same,glycan array binding signal (z-score),[3],-0.19
same,glycan array binding signal (z-score),[4],-0.089
same,glycan array binding signal (z-score),Gal(b1-3)GlcNAc6S,-0.12
same,glycan array binding signal (z-score),[5],-0.116
same,glycan array binding signal (z-score),[6],-0.1
same,glycan array binding signal (z-score),[7],-0.036
same,glycan array binding signal (z-score),[8],-0.109
same,glycan array binding signal (z-score),[9],-0.177
same,glycan array binding signal (z-score),[10],-0.119
same,glycan array binding signal (z-score),[11],-0.136
same,glycan array binding signal (z-score),[12],-0.102
same,glycan array binding signal (z-score),[13],-0.129
same,glycan array binding signal (z-score),[14],-0.136
same,glycan array binding signal (z-score),[15],-0.181
same,glycan array binding signal (z-score),[16],-0.151
same,glycan array binding signal (z-score),Gal(b1-4)Gal,-0.173
same,glycan array binding signal (z-score),[17],-0.118
same,glycan array binding signal (z-score),[18],-0.147
same,glycan array binding signal (z-score),Gal(b1-4)Glc,-0.123
same,glycan array binding signal (z-score),Gal(b1-4)Glc6S,-0.12
same,glycan array binding signal (z-score),Gal(b1-4)GlcNAc,-0.116
same,glycan array binding signal (z-score),[19],-0.124
same,glycan array binding signal (z-score),Gal(b1-4)GlcNAc(b1-2)Man,-0.106
same,glycan array binding signal (z-score),[20],-0.093
same,glycan array binding signal (z-score),[21],-0.143
same,glycan array binding signal (z-score),[22],-0.066
same,glycan array binding signal (z-score),[23],-0.085
same,glycan array binding signal (z-score),[24],-0.157
same,glycan array binding signal (z-score),[25],-0.111
same,glycan array binding signal (z-score),[26],-0.152
same,glycan array binding signal (z-score),[27],-0.109
same,glycan array binding signal (z-score),[28],-0.103
same,glycan array binding signal (z-score),[29],-0.093
same,glycan array binding signal (z-score),[30],-0.145
same,glycan array binding signal (z-score),[31],-0.062
